About 3,600 (1.6%) of roughly 230,000 compounds were called active. The shares of active, inactive and inconclusive entries below differ from those in the screen. Calls come from the whole dose curve; as a rule, active = well fitted inhibition curve with a large enough effect (not every such curve was filed as active); inconclusive = small, poorly fitted or top-dose-only effect, or another doubt; inactive = no such curve, though single readings can be large or run the other way. A potency beside an inconclusive call is a rough fit, not a confirmed value.
target: Lysine-specific demethylase 4E (Homo sapiens) (UniProt B2RXH2); test: qHTS Assay for Inhibitors of Human Jumonji Domain Containing 2E (JMJD2E); conditions: JMJD2E catalytic domain, FDH-coupled NADH fluorescence (FDH is formaldehyde dehydrogenase); series mostly up to 57.1 µM; activity change, negative = inhibition: at the top concentration
Note: nearly all actives have a fitted effect of over 50% in size.
Potency is the fitted concentration of half-maximal effect; tags give direction and shape of the fitted curve.
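Throughout, for activity change, negative = inhibition: 0% = wells with enzyme and -100% = buffer wells without enzyme.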

Chain of UniProt B2RXH2 (B2RXH2 whole entry, looked up, the tested form may be a part): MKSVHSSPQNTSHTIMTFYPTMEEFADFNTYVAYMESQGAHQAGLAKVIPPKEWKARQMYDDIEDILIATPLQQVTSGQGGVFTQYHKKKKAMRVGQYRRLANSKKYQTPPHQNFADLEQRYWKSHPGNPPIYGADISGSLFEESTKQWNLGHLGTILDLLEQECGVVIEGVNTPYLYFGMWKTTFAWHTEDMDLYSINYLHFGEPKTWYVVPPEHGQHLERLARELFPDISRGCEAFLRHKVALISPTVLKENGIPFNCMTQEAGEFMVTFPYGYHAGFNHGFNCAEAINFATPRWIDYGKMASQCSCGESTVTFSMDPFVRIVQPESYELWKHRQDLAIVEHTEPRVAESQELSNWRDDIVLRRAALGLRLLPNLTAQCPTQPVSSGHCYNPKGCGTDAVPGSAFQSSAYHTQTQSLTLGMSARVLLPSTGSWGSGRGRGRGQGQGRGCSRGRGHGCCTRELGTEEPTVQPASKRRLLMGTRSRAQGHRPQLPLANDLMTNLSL

Compound	Potency	activity change, negative = inhibition
O=C(O)c1ccc2ncsc2c1	active: 14.1 µM	–
O=C(CN1c2cccc3cccc(c23)S1(=O)=O)N1CCOCC1	inconclusive: 28.2 µM [inhibitor, partial curve]	–
Clc1nc(Oc2ccccc2)nc(-c2cn(-c3ccccc3)c3ccccc23)n1	inconclusive: 7.08 µM [inhibitor, partial curve]	–
CN1N=C(c2ccc(Cl)cc2)CC(c2ccc(Cl)cc2)C1=O (stereo not drawn)	inconclusive: 28.2 µM [inhibitor, partial curve]	–
O=C(CCC1N=C2c3ccccc3N=C(SCC(=O)NCc3ccco3)N2C1=O)NCc1ccco1 (stereo not drawn)	inconclusive: 31.6 µM [inhibitor, single point]	–
O=C(NNC(=S)Nc1cccc2ccccc12)c1cccc(Br)c1	–	inactive: -27.1%
Cn1cccc1CC(=O)NNC(=S)Nc1ccc(Cl)cc1	–	inactive: 4.41%
COc1cc(OC)c(OC)cc1/C=N/NC(=O)c1cc(-c2cccn2C)n[nH]1	inconclusive: 31.6 µM [inhibitor, single point]	–
Cc1ccc(-c2c(C#N)c(N)nc3c2CCCCC3)o1	inconclusive: 28.2 µM [inhibitor, partial curve]	–
CCOC(=O)C(NC(=O)NCc1cccc(C(F)(F)F)c1)(OCC)C(F)(F)F (stereo not drawn)	inconclusive: 39.8 µM [inhibitor, single point]	–
O=C(NCc1cccs1)c1ccc([N+](=O)[O-])cc1	–	inactive: -7.53%
COc1ccc(/C=N/NC(=O)c2nc(Cl)c(Cl)c(N)c2Cl)cc1COc1ccccc1F	inconclusive: 25.1 µM [inhibitor, partial curve]	–
COc1ccc(N2CCN(C(=O)CSc3nc4cc(OC)c(OC)cc4cc3C#N)CC2)cc1	inconclusive: 20 µM [inhibitor, partial curve]	–
COC(=O)c1cn(NC(=O)Cc2ccc(Cl)cc2)c(=O)c2ccccc12	inconclusive: 22.4 µM [inhibitor, single point]	–
CCOC(=O)c1cc(CC)sc1NC(=O)c1ccc(N2C(=O)CCC2=O)cc1	inconclusive: 28.2 µM [inhibitor, single point]	–
O=C(NNc1ccc(O)cc1)c1ccc(Br)cc1	inconclusive: 14.1 µM [inhibitor, partial curve]	–
O=C(O)CC(NC(=O)C(c1ccccc1)c1ccccc1)c1cccc([N+](=O)[O-])c1 (stereo not drawn)	–	inactive: 8.05%
COc1cnc(N(C)C)nc1Sc1cccc(Cl)c1	inconclusive: 31.6 µM [inhibitor, partial curve]	–
CCOC(=O)c1c(NC(=O)CSc2nnc(C)s2)sc2c1CCN(C)C2	inconclusive: 25.1 µM [inhibitor, partial curve]	–
CC(C)(C(O)c1ccc([N+](=O)[O-])cc1)[N+](=O)[O-] (stereo not drawn)	inconclusive: 20 µM [inhibitor, single point]	–
CCOc1cccc(NC(=O)/C(C#N)=C/c2cccnc2)c1	–	inactive: -6.86%
COCCCNC(=O)/C=C1\Sc2ccccc2N(Cc2ccccc2F)C1=O	inconclusive: 39.8 µM [inhibitor, single point]	–
O=C(c1cccnc1)N1CCN(Cc2ccc3c(c2)OCO3)CC1	inconclusive: 31.6 µM [inhibitor, single point]	–
COc1ccccc1NC(=O)C1=C(C)NC(=O)NC1c1ccccc1[N+](=O)[O-] (stereo not drawn)	inconclusive: 25.1 µM [inhibitor, partial curve]	–
CC1CC(=O)NN1C(=O)c1ccccc1 (stereo not drawn)	–	inactive: -0.0748%

Compound	Potency	activity change, negative = inhibition
O=C(CN1C(=O)c2cccc3cccc1c23)NCc1ccncc1	inconclusive: 31.6 µM [inhibitor, single point]	–
CCOC(=O)c1nn(-c2ccccc2)c(=O)c2c(N)scc12	inconclusive: 2.82 µM [inhibitor, full curve]	–
Cc1nc2ccccc2c2nc(NC(=O)C(F)(F)F)nn12	inconclusive: 31.6 µM [inhibitor, partial curve]	–
O=C1c2ccccc2C(=O)c2c1oc(C(F)(F)F)c2C(=O)c1ccccc1	–	inactive: 10.2%
COc1ccc(Cn2nnnc2C(c2cccs2)N2CCCCCC2)cc1 (stereo not drawn)	–	inactive: -11.1%
CN(C)c1nc(/C=C(\C#N)C(N)=O)c(Cl)n1-c1ccc(F)cc1	–	inactive: -2.1%
O=C(NCc1ccco1)C(=O)c1c[nH]c2ccccc12	–	inactive: 14.2%
Cc1cc(OC(=O)C(C)(C)C)c([N+](=O)[O-])c(=O)[nH]1	–	inactive: -5.66%
CC(=O)/C(N=Nc1ccc(C(=O)O)cc1[N+](=O)[O-])=C(\C)O	–	inactive: -16.2%
COc1cc(C(=O)N/N=C/C2CC=CCC2)cc(OC)c1OC (stereo not drawn)	–	inactive: -2.38%
COC(=O)NC(CCc1ccccc1)C(C(C)=O)C(=O)OC (stereo not drawn)	–	inactive: -2.52%
CN(C)c1ccc(C(=O)N2CC(=O)N(CCc3ccccc3)C(=O)C2)cc1	–	inactive: 1.19%
CCN(CC(=O)NCc1ccc(F)cc1)C(=O)/C=C/c1ccco1	–	inactive: -8.56%
Cc1cn(C2OC(COC(=O)c3ccccc3)C(O)C2Cl)c(=O)[nH]c1=O (stereo not drawn)	–	inactive: 7.32%
CC(C)(C)CN1CCNC(=O)C1CC(=O)N1CCOc2ccccc2C1 (stereo not drawn)	inconclusive: 25.1 µM [inhibitor, single point]	–
CC(Oc1cc(-c2ccccc2)cc2ccccc12)C(=O)N1CCOCC1 (stereo not drawn)	inconclusive: 25.1 µM [inhibitor, partial curve]	–
O=C(NCc1ccco1)/C(=C/c1ccc(C(F)(F)F)cc1)c1nc2ccccc2[nH]1	inconclusive: 31.6 µM [inhibitor, partial curve]	–
CC(=C/c1ccco1)/C=N/NC(=O)Cc1cccn1C	inconclusive: 28.2 µM [inhibitor, single point]	–
CCOC(=O)CCCc1sc(N)nc1-c1[nH]c(=O)[nH]c1C	inconclusive: 28.2 µM [inhibitor, single point]	–
N#Cc1cc(-c2ccccc2)oc1NC(=O)c1ccccc1	inconclusive: 39.8 µM [inhibitor, single point]	–
Cc1cc(N2CCN(C)CC2)n2cc(-c3ccc(F)cc3)nc2n1	inconclusive: 31.6 µM [inhibitor, partial curve]	–
CN1/C(=N\O)c2cccc3cccc1c23	inconclusive: 28.2 µM [inhibitor, single point]	–
CC(=O)Nc1c(C(=O)N2CCN(c3ccccn3)CC2)cnn1-c1ccc(C)cc1	inconclusive: 39.8 µM [inhibitor, single point]	–
Cc1cc(=O)n(CCc2ccccc2)c(O)c1C#N	active: 11.2 µM	–
COc1ccc(CC(=O)Nc2ccc(-c3cn4ccc(C)cc4n3)cc2)cc1	inconclusive: 22.4 µM [inhibitor, partial curve]	–

Compound	Potency	activity change, negative = inhibition
COc1cccc(CN2C[C@]34C=C[C@@H](C[C@@H]3S2(=O)=O)O4)c1	–	inactive: 9.59%
CC(=O)c1sc(-c2ccccc2)cc1N	inconclusive: 7.94 µM [inhibitor, full curve]	–
CCCCOc1ccc(-c2c(C(=O)Nc3ccccc3)c(C)[nH]c(=S)c2C#N)cc1	–	inactive: 4.41%
CN(c1ccccc1)S(=O)(=O)c1ccc(Cl)c(C(=O)OCC(N)=O)c1	inconclusive: 39.8 µM [inhibitor, partial curve, poor fit]	–
Cn1cc(C(=O)N2CCN(C(=O)c3ccco3)CC2)c2c3ccccc3n(C)c2c1=O	inconclusive: 25.1 µM [inhibitor, partial curve]	–
NS(=O)(=O)c1ccc2c(c1)C1C=CCC1C(C1CC=CCC1)N2 (stereo not drawn)	inconclusive: 35.5 µM [inhibitor, single point]	–
COc1cc(NC(=O)c2ccc(Cl)cc2Cl)ccc1NC(=O)c1cccs1	inconclusive: 35.5 µM [inhibitor, single point]	–
CCOC(=O)CNS(=O)(=O)c1ccc2c3c(cccc13)C(=O)N2CC	inconclusive: 28.2 µM [inhibitor, partial curve]	–
C=CCN1CCc2c(cc(O)c(O)c2Br)[C@@H](c2ccccc2)C1	active: 14.1 µM	–
CCOC(=O)c1c(N)sc(=S)c2c1CCC2	inconclusive: 31.6 µM [inhibitor, single point]	–
COCCN1C(=O)C(=O)/C(=C(/O)c2ccc(S(=O)(=O)N3CCOCC3)cc2)C1c1ccc(O)cc1 (stereo not drawn)	inconclusive: 11.2 µM [inhibitor, partial curve]	–
N=C1C(c2nc3ccccc3s2)=C(O)CN1NC(=O)c1ccco1	inconclusive: 25.1 µM [inhibitor, single point]	–
Cc1ccc(N2C(=O)CC(Sc3ncn[nH]3)C2=O)cc1 (stereo not drawn)	active: 2.51 µM	–
COc1ccc(C(=O)Nc2cc(OCc3ccccc3)c(Cl)cc2Cl)cc1	inconclusive: 39.8 µM [inhibitor, single point]	–
O=S1(=O)N=C(N/N=C/C=C/c2ccccc2)c2ccccc21	inconclusive: 28.2 µM [inhibitor, single point]	–
Oc1ccccc1-n1c(-c2ccccc2)ccc1-c1ccccc1	inconclusive: 28.2 µM [inhibitor, partial curve]	–
Cc1cc(-c2csc(N)n2)c(C)n1CCc1ccccc1	–	inactive: -4.01%
O=C(O)CCN=C1CCCc2ccccc2N1	–	inactive: -4.04%
COc1cccc(C2Nc3cccc4cccc(c34)N2)c1	inconclusive: 1.41 µM [inhibitor, full curve]	–
COC(=O)c1c(NC(=O)CN2C(=O)c3ccccc3C2=O)sc(Cc2ccc3c(c2)OCO3)c1C	–	inactive: -1.97%
CCCc1nc2oc3c(=O)[nH]cnc3c2c2c1COC(C)(C)C2	inconclusive: 28.2 µM [inhibitor, single point]	–
C/C=C/c1ccc(OCCCNC(C)CC)c(OC)c1 (stereo not drawn)	inconclusive: 25.1 µM [inhibitor, single point]	–
COc1cccc(C2=NNC(=NCc3ccccc3)SC2)c1	inconclusive: 3.55 µM [inhibitor, partial curve]	–
